Experimental data as given in patent publication EP3970494A1 (priority 2020, dated 2022).

Tested on: Phytophthora infestans
Type: cell-based
Settings: micro titer plate, 405 nm, 7 days after inoculation, 18 °C

Row | Compound | Fungal growth at 31 ppm (%) PHYTIN
1 | CO/N=C(/C(=O)OC)c1cccc(C)c1CO/N=C(\C)c1cnc(C)c(F)c1 [Example 100] | 0%
2 | (2E)-2-methoxvimino-N-methyl-2-[3-methyl-2-[[(E)-1-[2-methyl-5-(trifluoromethyl)pyrazol-3-yl]ethylideneamino]oxymethyl]phenyl]acetamide [Example 118] | 18%
3 | (2E)-2-methoxyimino-N-methyl-2-[3-methyl-2-[[(E)-1-[4-(trifluoromethyl)-6-vinyl-2-pyridyl]ethylideneamino]oxymethyl]phenyl]acetamide [Example 114] | 0%
